Results reported in the CheMixHub viscosity set.
Where “and” joins values, the source holds several entries; their conditions need not be identical. Identical values can stand only once. The source gives many values for each of these; only a part stands here.

Assay: xn = mol fraction of the nth substance listed

[Cl-].[Na+] + O
Settings | viscosity
293.15 K, 100 kPa, x1 = 0.0152 | 1.076 mPa·s
293.15 K, 101.3 kPa, x1 = 0.04 | 1.254 mPa·s
293.15 K, 101.3 kPa, x1 = 0.055 | 1.362 mPa·s
293.15 K, 101.3 kPa, x1 = 0.072 | 1.418 mPa·s
298.15 K, 100 kPa, x1 = 0.003569 | 0.912 mPa·s
298.15 K, 100 kPa, x1 = 0.003647 | 0.911 mPa·s
298.15 K, 100 kPa, x1 = 0.00612 | 1.033 mPa·s
298.15 K, 100 kPa, x1 = 0.00887 | 0.94 mPa·s
298.15 K, 100 kPa, x1 = 0.01261 | 0.958 mPa·s
298.15 K, 100 kPa, x1 = 0.01772 | 0.984 mPa·s
298.15 K, 100 kPa, x1 = 0.01818 | 0.989 mPa·s
298.15 K, 101 kPa, x1 = 0.0009 | 0.8978 mPa·s
298.15 K, 101 kPa, x1 = 0.001995 | 0.9 mPa·s and 0.9002 mPa·s
298.15 K, 101 kPa, x1 = 0.003 | 0.9276 mPa·s
298.15 K, 101 kPa, x1 = 0.01014 | 0.9363 mPa·s and 0.9362 mPa·s
298.15 K, 101 kPa, x1 = 0.01515 | 0.9607 mPa·s
298.15 K, 101 kPa, x1 = 0.04333 | 1.134 mPa·s
298.15 K, 101 kPa, x1 = 0.05279 | 1.21 mPa·s
298.15 K, 101 kPa, x1 = 0.07012 | 1.385 mPa·s
298.15 K, 101 kPa, x1 = 0.0863 | 1.574 mPa·s and 1.575 mPa·s
298.15 K, 101.33 kPa, x1 = 0.09998 | 1.577 mPa·s
303.15 K, 100 kPa, x1 = 0.003569 | 0.824 mPa·s
303.15 K, 100 kPa, x1 = 0.003647 | 0.823 mPa·s
303.15 K, 100 kPa, x1 = 0.008855 | 0.844 mPa·s
303.15 K, 100 kPa, x1 = 0.00887 | 0.851 mPa·s
303.15 K, 100 kPa, x1 = 0.01261 | 0.863 mPa·s
303.15 K, 100 kPa, x1 = 0.01772 | 0.889 mPa·s
303.15 K, 100 kPa, x1 = 0.01818 | 0.894 mPa·s
303.15 K, 101 kPa, x1 = 0.0002314 | 0.7989 mPa·s
303.15 K, 101 kPa, x1 = 0.0002878 | 0.7992 mPa·s and 0.7991 mPa·s
303.15 K, 101 kPa, x1 = 0.000365 | 0.7995 mPa·s
303.15 K, 101 kPa, x1 = 0.001112 | 0.8025 mPa·s and 0.8027 mPa·s
303.15 K, 101 kPa, x1 = 0.001995 | 0.8066 mPa·s and 0.8067 mPa·s
303.15 K, 101 kPa, x1 = 0.004239 | 0.8161 mPa·s and 0.816 mPa·s
303.15 K, 101 kPa, x1 = 0.01014 | 0.8411 mPa·s and 0.841 mPa·s
303.15 K, 101 kPa, x1 = 0.05279 | 1.091 mPa·s and 1.092 mPa·s
303.15 K, 101 kPa, x1 = 0.0863 | 1.413 mPa·s and 1.414 mPa·s
303.15 K, 101 kPa, x1 = 0.09494 | 1.522 mPa·s and 1.523 mPa·s
307.3 K, 100 kPa, x1 = 0.09185 | 1.359 mPa·s
307.61 K, 100 kPa, x1 = 0.09185 | 1.35 mPa·s
307.62 K, 100 kPa, x1 = 0.09185 | 1.35 mPa·s
308.15 K, 100 kPa, x1 = 0.003569 | 0.746 mPa·s
308.15 K, 100 kPa, x1 = 0.003647 | 0.748 mPa·s
308.15 K, 100 kPa, x1 = 0.008855 | 0.766 mPa·s
308.15 K, 100 kPa, x1 = 0.00887 | 0.771 mPa·s
308.15 K, 100 kPa, x1 = 0.01261 | 0.783 mPa·s
308.15 K, 100 kPa, x1 = 0.01772 | 0.805 mPa·s
308.15 K, 100 kPa, x1 = 0.01818 | 0.815 mPa·s
308.15 K, 101 kPa, x1 = 0.0009 | 0.7251 mPa·s
308.15 K, 101 kPa, x1 = 0.005 | 0.7433 mPa·s
308.15 K, 101.3 kPa, x1 = 0.00112 | 0.7238 mPa·s
308.15 K, 101.3 kPa, x1 = 0.002247 | 0.7353 mPa·s
308.15 K, 101.3 kPa, x1 = 0.004484 | 0.7441 mPa·s
308.15 K, 101.3 kPa, x1 = 0.008927 | 0.7642 mPa·s
308.15 K, 101.3 kPa, x1 = 0.0177 | 0.799 mPa·s
308.15 K, 101.33 kPa, x1 = 0.000905 | 0.7247 mPa·s
308.15 K, 101.33 kPa, x1 = 0.006344 | 0.7542 mPa·s
308.15 K, 101.33 kPa, x1 = 0.008159 | 0.7646 mPa·s
310.15 K, 101 kPa, x1 = 9e-05 | 0.6988 mPa·s
310.15 K, 101 kPa, x1 = 0.000182 | 0.7 mPa·s
310.15 K, 101 kPa, x1 = 0.000911 | 0.7039 mPa·s
310.15 K, 101 kPa, x1 = 0.00178 | 0.7083 mPa·s
310.15 K, 101 kPa, x1 = 0.003 | 0.743 mPa·s
310.15 K, 101 kPa, x1 = 0.009131 | 0.7351 mPa·s
310.15 K, 101 kPa, x1 = 0.01839 | 0.7756 mPa·s
313.15 K, 100 kPa, x1 = 0.003569 | 0.679 mPa·s
313.15 K, 100 kPa, x1 = 0.003647 | 0.681 mPa·s
313.15 K, 100 kPa, x1 = 0.008855 | 0.703 mPa·s
313.15 K, 100 kPa, x1 = 0.00887 | 0.703 mPa·s
313.15 K, 100 kPa, x1 = 0.01261 | 0.714 mPa·s
313.15 K, 100 kPa, x1 = 0.01772 | 0.735 mPa·s
313.15 K, 100 kPa, x1 = 0.01818 | 0.75 mPa·s
313.15 K, 101 kPa, x1 = 0.0003096 | 0.654 mPa·s and 0.6545 mPa·s
313.15 K, 101 kPa, x1 = 0.0009631 | 0.6568 mPa·s and 0.657 mPa·s
313.15 K, 101 kPa, x1 = 0.009969 | 0.6909 mPa·s and 0.6915 mPa·s
313.15 K, 101 kPa, x1 = 0.02011 | 0.732 mPa·s and 0.7328 mPa·s
313.15 K, 101 kPa, x1 = 0.04071 | 0.832 mPa·s and 0.8329 mPa·s
313.15 K, 101 kPa, x1 = 0.06533 | 0.9874 mPa·s and 0.9883 mPa·s
313.15 K, 101 kPa, x1 = 0.08944 | 1.192 mPa·s and 1.193 mPa·s
313.15 K, 101.3 kPa, x1 = 0.00112 | 0.661 mPa·s
313.15 K, 101.3 kPa, x1 = 0.002247 | 0.67 mPa·s
313.15 K, 101.3 kPa, x1 = 0.004484 | 0.6786 mPa·s
313.15 K, 101.3 kPa, x1 = 0.008927 | 0.695 mPa·s
313.15 K, 101.33 kPa, x1 = 0.000905 | 0.6616 mPa·s
313.15 K, 101.33 kPa, x1 = 0.002718 | 0.6705 mPa·s
313.15 K, 101.33 kPa, x1 = 0.00453 | 0.6792 mPa·s
313.15 K, 101.33 kPa, x1 = 0.006344 | 0.6858 mPa·s
313.15 K, 101.33 kPa, x1 = 0.008159 | 0.6959 mPa·s
313.62 K, 100 kPa, x1 = 0.09185 | 1.204 mPa·s
313.83 K, 100 kPa, x1 = 0.09185 | 1.199 mPa·s
313.86 K, 100 kPa, x1 = 0.09185 | 1.196 mPa·s
318.15 K, 100 kPa, x1 = 0.003569 | 0.62 mPa·s
318.15 K, 100 kPa, x1 = 0.003647 | 0.625 mPa·s
318.15 K, 100 kPa, x1 = 0.00887 | 0.644 mPa·s
318.15 K, 100 kPa, x1 = 0.01261 | 0.655 mPa·s
318.15 K, 100 kPa, x1 = 0.01772 | 0.675 mPa·s
318.15 K, 100 kPa, x1 = 0.01818 | 0.693 mPa·s
318.15 K, 101 kPa, x1 = 0.0009 | 0.6022 mPa·s
318.15 K, 101 kPa, x1 = 0.002 | 0.6056 mPa·s
318.15 K, 101 kPa, x1 = 0.005 | 0.6189 mPa·s
323.15 K, 100 kPa, x1 = 0.003569 | 0.572 mPa·s
323.15 K, 100 kPa, x1 = 0.003647 | 0.58 mPa·s
323.15 K, 100 kPa, x1 = 0.008855 | 0.6 mPa·s
323.15 K, 100 kPa, x1 = 0.00887 | 0.596 mPa·s
323.15 K, 100 kPa, x1 = 0.01261 | 0.61 mPa·s
323.15 K, 100 kPa, x1 = 0.01772 | 0.626 mPa·s
323.15 K, 100 kPa, x1 = 0.01818 | 0.645 mPa·s
323.15 K, 101 kPa, x1 = 0.0003096 | 0.5478 mPa·s and 0.5481 mPa·s
323.15 K, 101 kPa, x1 = 0.0009631 | 0.5502 mPa·s and 0.5504 mPa·s
323.15 K, 101 kPa, x1 = 0.003094 | 0.5575 mPa·s and 0.5579 mPa·s
323.15 K, 101 kPa, x1 = 0.009969 | 0.581 mPa·s and 0.5813 mPa·s
323.15 K, 101 kPa, x1 = 0.02011 | 0.6174 mPa·s and 0.6177 mPa·s
323.15 K, 101 kPa, x1 = 0.04071 | 0.7034 mPa·s and 0.704 mPa·s
323.15 K, 101 kPa, x1 = 0.06533 | 0.8338 mPa·s and 0.8345 mPa·s
323.15 K, 101 kPa, x1 = 0.08944 | 1.001 mPa·s and 1.002 mPa·s
323.15 K, 101.3 kPa, x1 = 0.00112 | 0.5516 mPa·s
323.15 K, 101.3 kPa, x1 = 0.002247 | 0.5585 mPa·s
323.15 K, 101.3 kPa, x1 = 0.004484 | 0.5678 mPa·s
323.15 K, 101.3 kPa, x1 = 0.008927 | 0.587 mPa·s
323.15 K, 101.3 kPa, x1 = 0.0177 | 0.62 mPa·s
323.15 K, 101.33 kPa, x1 = 0.000905 | 0.5522 mPa·s
323.15 K, 101.33 kPa, x1 = 0.002718 | 0.559 mPa·s
323.15 K, 101.33 kPa, x1 = 0.00453 | 0.5682 mPa·s
323.15 K, 101.33 kPa, x1 = 0.006344 | 0.5742 mPa·s
323.15 K, 101.33 kPa, x1 = 0.008159 | 0.5877 mPa·s
